# Assay results from PubChem BioAssay AID1347073 (National Center for Advancing Translational Sciences (NCATS), 2019).
# Hit rate of the full screen: of about 45,000 compounds, about 200 (0.44%) were called active. Roughly 7% stayed inconclusive and do not appear here. Calls come from the whole dose curve; as a rule, active = well fitted activation curve with a large enough effect; inconclusive = small, poorly fitted or top-dose-only effect; inactive = no such curve, though single readings can be large or run the other way. This is one part of the list.
# Experiment: qHTS of TDP-43 Inhibitors: NCGC Sytravon Library Screen; note: 0% is about no effect; nearly all actives have a fitted effect of over 55% in size
# Conditions: yeast TDP-43 toxicity rescue, BacTiter-Glo growth, 24 h; series mostly up to 46.1 µM; growth rescue (activation): at the top concentration
# Summary of the method: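 TDP-43-expressing yeast, pregrown in raffinose, seeded at OD600 0.02 in galactose medium with compound for 24 hr at 30 deg C. Growth read by BacTiter-Glo luminescence, so rescue of toxicity appears as activation.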
row,Structure (SMILES),growth rescue (activation)
1,CCc1ccc(OCC(=O)OCC(=O)NC2CCCC(C)C2C)cc1 (stereo unspecified),inactive: -13.1%
2,Cc1cc(N2C(=O)C(O)=C(C(=O)c3ccc(C)o3)C2c2ccc(OCc3ccccc3)cc2)no1 (stereo unspecified),inactive: -12.8%
3,CC(C)NC(=O)c1ccc(COc2ccc(C(C)(C)C)cc2)o1,inactive: -10.9%
4,CCOc1ccccc1NC(=O)c1c(NCc2sccc2C)sc2c1CCC(C)C2 (stereo unspecified),inactive: 11.5%
5,O=C(CN1CCN(S(=O)(=O)N2CCCCC2)CC1)Nc1cc(Cl)ccc1Cl,inactive: 10.4%
6,O=C1c2cccc3cccc(c23)C(=O)N1/N=C/c1ccc(O)cc1O,inactive: 9.36%
7,Cc1cccc(C(=O)Nc2ccc(C(=O)N/N=C/c3cccc(C)n3)cc2)c1,inactive: 9.82%
8,Cc1cc(Br)cc2c1NC(=O)C2(O)CC(=O)c1ccco1 (stereo unspecified),inactive: -6.48%
9,CC(=O)Nc1ccc(-n2c(C)ccc2-c2ccccc2)cc1,inactive: 5.14%
10,Cc1onc(-c2ccccc2)c1C(=O)Nc1ccc(S(=O)(=O)N2CCOCC2)cc1,inactive: -21.4%
11,CCN(C(=O)COc1cccnc1[N+](=O)[O-])C1CCS(=O)(=O)C1 (stereo unspecified),inactive: 8.14%
12,COCCNC(=O)c1cc(-c2ccncc2)nc2ccc(S(=O)(=O)N3CCOCC3)cc12,inactive: -3.41%
13,CCCCC(=O)Nc1ccccc1CC,inactive: 1.89%
14,O=c1c2ccccc2nc(COc2ccccc2)n1/N=C/c1ccco1,inactive: 12.1%
15,COc1ccc(/C(N)=N/OC(=O)Cc2ccccc2)cc1,inactive: 29.3%
16,O=C(N/C(=C\c1ccc(Cl)cc1)C(=O)N1CCOCC1)c1ccco1,inactive: -27.7%
17,COc1ccc(/C=C/C(=O)Nc2sc(Cc3ccccc3)c(C)c2C(N)=O)cc1,inactive: -9.88%
18,O=C(CN(C(=O)CNC(=O)c1cccs1)c1ccc(F)cc1)NC1CCCC1,inactive: 3.26%
19,O=C(COC(=O)Cc1ccc(S(=O)(=O)N2CCOCC2)s1)Nc1ccc(OC(F)F)cc1,inactive: 8.98%
20,O=C(COC(=O)[C@@H]1CC(O)CN1S(=O)(=O)c1ccccc1[N+](=O)[O-])c1ccccc1 (stereo partly specified),inactive: -5.92%
21,COc1cc(OC)cc(C(=O)N2CCC(N3CCN(c4ccccc4OC)CC3)CC2)c1,inactive: -33.6%
22,CCOc1ccc(N(CC(=O)NC2CCCCC2)S(=O)(=O)c2ccc(C)cc2)cc1,inactive: 5.29%

row,Structure (SMILES),growth rescue (activation)
1,O=C(NC(=S)N1CCN(c2ccc([N+](=O)[O-])cc2)CC1)c1ccccc1,inactive: 0.468%
2,O=C(CCl)Nc1ccc2c(c1)OCO2,inactive: 8.18%
3,COc1cccc(Cn2c3ccc(NC(=O)CCc4ccc(F)cc4)cc3c(=O)n2C)c1,inactive: 0.331%
4,COc1cc(NC(=O)CN2CCCCC2C)c(C)cc1[N+](=O)[O-] (stereo unspecified),inactive: -18.7%
5,CC(C)(C)c1ccc(OCC(=O)NNC(=O)CCc2ccccc2)cc1,inactive: 26.9%
6,Cc1ccccc1N(C(=O)c1cccs1)c1nc2ccccc2s1,inactive: -5.35%
7,CC1(C)OC(=O)C(=NNc2ccc(Br)cc2)C(=O)O1,inactive: 30.3%
8,O=S(=O)(NCCN1CCOCC1)c1cccs1,inactive: 6.47%
9,Cc1cccc(NCCC#N)c1,inactive: 19.5%
10,C[n+]1ccn(CC(=O)c2ccc(Cl)cc2)c1,inactive: 8.29%
11,O=C(NCCn1cccn1)c1ccc(OC2CCN(CCc3ccccc3)CC2)cc1,inactive: 15.7%
12,CCOC(=O)C1(CCOc2ccccc2)CCN(Cc2ccncc2)CC1,inactive: -9.05%
13,COC(=O)c1nn(-c2ccccc2)c(Cl)c1/C=N/OCc1ccc(Cl)cc1Cl,inactive: 12%
14,CC(=O)c1cccc(NC(=O)CC2CCCC2)c1,inactive: 5.58%
15,O=C(N/N=C/c1ccc(OCc2ccccc2)cc1)c1ccco1,inactive: 25.6%
16,O=C(Nc1ccc2c(c1)OCO2)C1CC(=O)N(c2ccc(F)cc2)C1 (stereo unspecified),inactive: 13.5%
17,Cc1oc2cc([N+](=O)[O-])c(O)c([N+](=O)[O-])c2c1C(=O)c1ccc(Br)cc1,inactive: -38%
18,Nc1nc(NCc2ccco2)nc(Nc2ccccc2)c1[N+](=O)[O-],inactive: 19.3%
19,CCCCN(C)CCCNC(=O)c1cc(=O)[nH]c2ccc(S(=O)(=O)N3CCCCC3C)cc12 (stereo unspecified),inactive: -0.641%
20,Cc1ccc([N+](=O)[O-])cc1NC(=O)CN(C1CCCCC1)S(=O)(=O)c1ccc(Cl)cc1,inactive: 20.4%
21,Cc1ccccc1C(=O)Nc1sc2c(c1C(=O)O)CCC2,inactive: -10.2%
22,O=C(O)c1cc(NCc2ccccc2)ccc1N1CCOCC1,inactive: 13.1%

row,Structure (SMILES),growth rescue (activation)
1,O=C(NCc1n[nH]c(=S)n1-c1ccc(Cl)c(Cl)c1)c1ccc(S(=O)(=O)N2CCCCC2)cc1,inactive: -2.76%
2,Cn1c(N)c(C(=O)COC(=O)CNC(=O)c2ccccc2)c(=O)n(C)c1=O,inactive: -8.46%
3,CCN(CC(=O)NC1CCS(=O)(=O)C1)S(=O)(=O)c1ccc(Br)cc1 (stereo unspecified),inactive: 2.54%
4,CCN(CC)S(=O)(=O)c1cc(NC(=O)CNc2c(C)n(C)n(-c3ccccc3)c2=O)ccc1C,inactive: -0.258%
5,COc1ccc(-c2cc(C(=O)NCC(c3ccccc3)N(C)C)c3ccccc3n2)cc1OC (stereo unspecified),inactive: 3.74%
6,O=C(NCc1ccc(F)cc1)C(c1ccc(Cl)cc1)N(C(=O)c1csnn1)C1CC1 (stereo unspecified),inactive: 1.69%
7,O=C(Nc1nccs1)C1CCN(S(=O)(=O)c2ccccc2)CC1,inactive: -6.19%
8,CCOC(=O)/C=C1/N(C)c2ccccc2C1(C)C,inactive: 2.09%
9,CC(=O)NCCCNS(=O)(=O)c1ccc(C)cc1,inactive: 6.31%
10,Cc1cc(N=Cc2c(O)n(-c3cccc(Cl)c3)c(=O)c3ccccc23)no1,inactive: 10.1%
11,O=C(NNC(=O)C12CC3CC(CC(C3)C1)C2)c1ccccc1[N+](=O)[O-],inactive: -2.04%
12,O=C(COc1ccccc1[N+](=O)[O-])NCCC1=CCCCC1,inactive: 25.1%
13,O=C(CSc1ccc([N+](=O)[O-])cc1)Nc1nnc(C2CC2)s1,inactive: -5.79%
14,COc1cc(/C=C/C(=O)O)cc(S(=O)(=O)Nc2ccccc2Cl)c1OC,inactive: -1.01%
15,CN1N=C(C(=O)Nc2ccc3c(c2)CCC3)CCC1=O,inactive: 3.32%
16,O=C(CSc1ncn[nH]1)NCCc1ccc(Cl)cc1Cl,inactive: 11.9%
17,CCOC(=O)/C=C/C(=O)Nc1ccc(S(=O)(=O)Nc2cc(C)on2)cc1,inactive: 2.97%
18,Cc1c(C(N)=O)sc2ncn(CC(=O)N(C)C3CCCCC3)c(=O)c12,inactive: 0.0385%
19,CCCC(=O)Nc1ccc(NC(=O)C2CC2)cn1,inactive: 1.02%
20,CC(=O)Nc1c(C)nn(C(C)=O)c1C,inactive: 15.7%
21,Cn1c(NCc2c[nH]c3ccccc23)nc2ccccc21,inactive: 20.7%
22,CCOc1cc(C2c3c(oc4ccccc4c3=O)C(=O)N2c2ccccn2)ccc1O (stereo unspecified),inactive: 7.15%

row,Structure (SMILES),growth rescue (activation)
1,Cc1cc(Nc2ncc(Cl)cc2Cl)n(-c2ccccn2)n1,inactive: 3.2%
2,COc1ccc(C(=O)C2CCCN(S(=O)(=O)c3cccc(C)c3)C2)c(C)c1 (stereo unspecified),inactive: 8.5%
3,COc1ccccc1/C=N/NC(=O)CO,inactive: 3.44%
4,CNC(=O)c1c2c(nc3ccc(Br)cc13)CCCC2,inactive: 10.2%
5,CCCCCCn1c(N2CCN(c3cccc(Cl)c3)CC2)nc2c1c(=O)[nH]c(=O)n2C,inactive: 15.3%
6,COc1ccc(OC)c(Nc2nc(NCCCN(C)C)nc(N)c2[N+](=O)[O-])c1,inactive: -4.64%
7,CC1(C(=O)NS(=O)(=O)c2cccc(C#N)c2)CCN1C(=O)c1ccc(C2CCCCC2)cc1 (stereo unspecified),inactive: 19.7%
8,Cn1c(=O)c2cn(-c3cccc4ccccc34)cc2n(C)c1=O,inactive: 18.1%
9,CC(Oc1ccc(C(=O)c2ccccc2)cc1)C(=O)Nc1ccc(S(N)(=O)=O)cc1 (stereo unspecified),inactive: 32.3%
10,O=C1CC(c2ccccc2)CC(O)=C1C=Nc1cccc(Cl)c1 (stereo unspecified),inactive: -86.8%
11,O=C(CC(=O)Nc1ccccc1[N+](=O)[O-])Nc1ccccc1[N+](=O)[O-],inactive: -9.79%
12,CCN(CC)CCCNC(=O)c1cc(Nc2ccc(OC)cc2)nc2ccccc12,inactive: -2.68%
13,CCc1c(C)nc(SCCOc2ccc(OC(C)C)cc2)[nH]c1=O,inactive: 29.5%
14,O=C(O)c1cccc(NC(=O)c2cccc(S(=O)(=O)N3CCc4ccccc43)c2)c1,inactive: -2.8%
15,CCn1c(O)c(C=Nc2ccccc2)sc1=S,inactive: 0.117%
16,CS(=O)(=O)N1CCN(c2ccc(NC(=S)NC(=O)c3ccccc3[N+](=O)[O-])cc2)CC1,inactive: 5.77%
17,C/C(CC(=O)Nc1ccc(C)c(Cl)c1)=N\NC(=O)Cc1ccccc1,inactive: 7.98%
18,CCC(C)NC(=O)C1CCN(S(=O)(=O)N2CCC3(CC2)OCCO3)CC1 (stereo unspecified),inactive: 5.17%
19,C/C(N)=C(/C#N)C(=O)COC(=O)COc1ccc(Cl)cc1,inactive: -2.59%
20,CC1=C(C(=O)N2CCOCC2)C(c2ccc(C)cc2)NC(=S)N1 (stereo unspecified),inactive: 0.155%
21,O=C1OCCC1Sc1nnc(-c2cccnc2)n1-c1ccccc1F (stereo unspecified),inactive: -3.31%
22,CC1(c2ccc(Cl)cc2)NC(=O)N(CC(=O)NC2CCCCC2)C1=O (stereo unspecified),inactive: -6.33%

row,Structure (SMILES),growth rescue (activation)
1,CC(C)(C)NC(=O)c1ccc2c(c1)C1C3CCC(C3)C1C(c1ccccc1)N2 (stereo unspecified),inactive: 30.2%
2,COc1cc2c(cc1OC)-c1cc(Nc3ccccc3Br)nc(=O)n1CC2,inactive: 25%
3,COc1ccc(CCNC(=O)CNC(=O)Cn2cnc3sc(C)c(C)c3c2=O)cc1OC,inactive: -1.8%
4,O=C(O)CCc1ccc(S(=O)(=O)Nc2ccccc2C(=O)NCCc2ccccc2)cc1,inactive: -2.41%
5,CCOC1=NN(c2ccccc2)C(=O)/C1=C\N(C)C,inactive: -7.82%
6,Clc1ccc(-c2csc(N/N=C\c3cccnc3)n2)cc1,inactive: 20.6%
7,Cc1ccc(-n2c(SCC(=O)NCc3ccc4c(c3)OCO4)nnc2-c2cccnc2)c(C)c1,inactive: 32.9%
8,Cc1sc2ncn(CC(=O)NCCCN3CCC(C)CC3)c(=O)c2c1S(=O)(=O)N1CCC(C)CC1,inactive: 11.6%
9,O=C(O)CN1C(=O)/C(=C\c2ccc(OC(=O)c3ccco3)cc2)SC1=S,inactive: 10.5%
10,O=C(O)CNc1ccc(S(=O)(=O)C(F)(F)F)cc1[N+](=O)[O-],inactive: -36.9%
11,Cc1cc(C)nc(N/N=C/C=C/c2ccccc2)n1,inactive: 27.7%
12,CCc1ccc(CN(C)C(=O)C2CCC(=O)N(CCCN3CCCC3=O)C2)cc1 (stereo unspecified),inactive: 6.4%
13,O=C1CN(C(=O)CSc2nc(-c3ccccc3)cs2)c2ccccc2N1,inactive: 9.69%
14,Cc1ccc(C(=O)NCCNC(=O)COc2ccc(Cl)cc2)cn1,inactive: -4.13%
15,Cc1ccc(O)c(NC(=O)C2CC(c3cccc(Br)c3)=NO2)c1 (stereo unspecified),inactive: 8.08%
16,O=C(CNc1cccc2ccccc12)c1ccc([N+](=O)[O-])cc1,inactive: 19.4%
17,CCc1nnc(NC(=O)CS(=O)(=O)Cc2ccccc2)s1,inactive: 11.9%
18,COCCCNC(=O)C(=O)NC1CCCCCC1,inactive: -5.14%
